# Some of the results follow.
# B1: Epa12 (Candida glabrata) (protein)
# chain: MGSSHHHHHHSSGLVPRGSHMLEPDNSLQIFDSFLSNPSKYPLGCSPKITNPKKGLSMELYSYPYRKKGSHPCWDPAYLDPNFPRVGYKKNKLIARVDGVSGDINFNFHPKRQCTPIADYLPPNFNYNEPITTTNFTMLLYGYFKPKVTGLHTFDISADDLLFMNFGAGNAFDCCRRDSTADTFGNYVAWAIWGRRIVRNKLTVRLDKGIYYPLRLFFNNRDYYGQMRLTFKTEHGSERITDFSDYFFSVDDTSEGCPGLITYESECADVKSSTVLETDYITIQAEKE
# Tests used:
# Assay in all cases: glycan array binding signal (z-score within array); higher = stronger binding
# Conditions in all cases: glycan notation: IUPAC condensed, linker removed
# [1] = molecular target: GlcNAc(b1-3)Gal(b1-4)GlcNAc(b1-3)Gal(b1-4)GlcNAc(b1-3)Gal(b1-4)GlcNAc(b1-3)Gal(b1-4)GlcNAc(b1-2)Man(a1-3)[GlcNAc(b1-3)Gal(b1-4)GlcNAc(b1-3)Gal(b1-4)GlcNAc(b1-3)Gal(b1-4)GlcNAc(b1-3)Gal(b1-4)GlcNAc(b1-2)Man(a1-6)]Man(b1-4)GlcNAc(b1-4)GlcNAc
# Procedure, shortened: (§1)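 From the Consortium for Functional Glycomics database, 3228 arrays were curated, keeping only those whose protein sequence was available. Binding is given as a within-array Z-score averaged across arrays sharing a protein sequence and across linkers. Negative Z-scores can be read as non-binding.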
# [2] = molecular target: GlcNAc(b1-3)Gal(b1-4)GlcNAc(b1-3)Gal(b1-4)GlcNAc(b1-3)Gal(b1-4)GlcNAc(b1-3)Gal(b1-4)GlcNAc(b1-2)Man(a1-3)[GlcNAc(b1-3)Gal(b1-4)GlcNAc(b1-3)Gal(b1-4)GlcNAc(b1-3)Gal(b1-4)GlcNAc(b1-3)Gal(b1-4)GlcNAc(b1-2)Man(a1-6)]Man(b1-4)GlcNAc(b1-4)[Fuc(a1-6)]GlcNAc
# Procedure, shortened: as §1
# [3] = molecular target: GlcNAc(b1-3)Gal(b1-4)GlcNAc(b1-3)Gal(b1-4)GlcNAc(b1-3)Gal(b1-4)GlcNAc(b1-3)Gal(b1-4)GlcNAc(b1-2)[GlcNAc(b1-3)Gal(b1-4)GlcNAc(b1-3)Gal(b1-4)GlcNAc(b1-3)Gal(b1-4)GlcNAc(b1-3)Gal(b1-4)GlcNAc(b1-6)]Man(a1-6)[GlcNAc(b1-3)Gal(b1-4)GlcNAc(b1-3)Gal(b1-4)GlcNAc(b1-3)Gal(b1-4)GlcNAc(b1-3)Gal(b1-4)GlcNAc(b1-2)Man(a1-3)]Man(b1-4)GlcNAc(b1-4)[Fuc(a1-6)]GlcNAc
# Procedure, shortened: as §1
# [4] = molecular target: GlcNAc(b1-3)Gal(b1-4)GlcNAc(b1-3)Gal(b1-4)GlcNAc(b1-3)GalNAc
# Procedure, shortened: as §1
# [5] = molecular target: GlcNAc(b1-3)Gal(b1-4)GlcNAc(b1-3)GalNAc
# Procedure, shortened: as §1
# [6] = molecular target: GlcNAc(b1-3)Gal(b1-4)GlcNAc(b1-3)[GlcNAc(b1-3)Gal(b1-4)GlcNAc(b1-3)]GalNAc
# Procedure, shortened: as §1
# [7] = molecular target: GlcNAc(b1-3)Gal(b1-4)GlcNAc(b1-6)[Gal(b1-3)]GalNAc
# Procedure, shortened: as §1
# [8] = molecular target: GlcNAc(b1-3)Gal(b1-4)GlcNAc(b1-6)[GlcNAc(b1-3)Gal(b1-3)]GalNAc
# Procedure, shortened: as §1
# [9] = molecular target: GlcNAc(b1-3)Gal(b1-4)GlcNAc(b1-6)[GlcNAc(b1-3)]Gal(b1-4)GlcNAc
# Procedure, shortened: as §1
# GlcNAc(b1-3)GalNAc = molecular target: GlcNAc(b1-3)GalNAc
# Procedure, shortened: as §1
# GlcNAc(b1-3)Man = molecular target: GlcNAc(b1-3)Man
# Procedure, shortened: as §1
# [10] = molecular target: GlcNAc(b1-3)[GlcNAc(b1-4)][GlcNAc(b1-6)]GlcNAc
# Procedure, shortened: as §1
# [11] = molecular target: GlcNAc(b1-3)[GlcNAc(b1-6)]Gal(b1-4)GlcNAc
# Procedure, shortened: as §1
# [12] = molecular target: GlcNAc(b1-3)[GlcNAc(b1-6)]GalNAc
# Procedure, shortened: as §1
# [13] = molecular target: GlcNAc(b1-3)[GlcNAc(b1-6)]GlcNAc
# Procedure, shortened: as §1
# [14] = molecular target: GlcNAc(b1-4)Gal(b1-4)GlcNAc
# Procedure, shortened: as §1
# GlcNAc(b1-4)GlcNAc = molecular target: GlcNAc(b1-4)GlcNAc
# Procedure, shortened: as §1
# [15] = molecular target: GlcNAc(b1-4)GlcNAc(b1-4)GlcNAc
# Procedure, shortened: as §1
# [16] = molecular target: GlcNAc(b1-4)GlcNAc(b1-4)GlcNAc(b1-4)GlcNAc(b1-4)GlcNAc
# Procedure, shortened: as §1
# [17] = molecular target: GlcNAc(b1-4)GlcNAc(b1-4)GlcNAc(b1-4)GlcNAc(b1-4)GlcNAc(b1-4)GlcNAc
# Procedure, shortened: as §1
# [18] = molecular target: GlcNAc(b1-4)[GlcNAc(b1-6)]GalNAc
# Procedure, shortened: as §1
# [19] = molecular target: GlcNAc(b1-6)Gal(b1-4)GlcNAc
# Procedure, shortened: as §1
# GlcNAc(b1-6)GalNAc = molecular target: GlcNAc(b1-6)GalNAc
# Procedure, shortened: as §1
# [20] = molecular target: GlcNAc6S(b1-3)Gal(b1-4)GlcNAc
# Procedure, shortened: as §1
# Kdn(a2-3)Gal(b1-3)GalNAc = molecular target: Kdn(a2-3)Gal(b1-3)GalNAc
# Procedure, shortened: as §1
# Kdn(a2-3)Gal(b1-3)GlcNAc = molecular target: Kdn(a2-3)Gal(b1-3)GlcNAc
# Procedure, shortened: as §1
# Kdn(a2-3)Gal(b1-4)Glc = molecular target: Kdn(a2-3)Gal(b1-4)Glc
# Procedure, shortened: as §1
# Kdn(a2-3)Gal(b1-4)GlcNAc = molecular target: Kdn(a2-3)Gal(b1-4)GlcNAc
# Procedure, shortened: as §1
# [21] = molecular target: Kdn(a2-3)Gal(b1-4)[Fuc(a1-3)]GlcNAc
# Procedure, shortened: as §1
# Kdn(a2-6)Gal(b1-4)GlcNAc = molecular target: Kdn(a2-6)Gal(b1-4)GlcNAc
# Procedure, shortened: as §1
# [22] = molecular target: Man(a1-2)Man(a1-2)Man(a1-3)Man
# Procedure, shortened: as §1
# [23] = molecular target: Man(a1-2)Man(a1-2)Man(a1-3)[Man(a1-2)Man(a1-3)[Man(a1-2)Man(a1-6)]Man(a1-6)]Man(b1-4)GlcNAc(b1-4)GlcNAc
# Procedure, shortened: as §1
# [24] = molecular target: Man(a1-2)Man(a1-2)Man(a1-3)[Man(a1-2)Man(a1-6)[Man(a1-3)]Man(a1-6)]Man(b1-4)GlcNAc(b1-4)GlcNAc
# Procedure, shortened: as §1
# [25] = molecular target: Man(a1-2)Man(a1-2)Man(a1-6)[Man(a1-3)]Man
# Procedure, shortened: as §1
# Man(a1-2)Man(a1-3)Man = molecular target: Man(a1-2)Man(a1-3)Man
# Procedure, shortened: as §1
# [26] = molecular target: Man(a1-2)Man(a1-3)[Man(a1-2)Man(a1-6)]Man
# Procedure, shortened: as §1
# [27] = molecular target: Man(a1-2)Man(a1-3)[Man(a1-2)Man(a1-6)]Man(a1-6)[Man(a1-2)Man(a1-2)Man(a1-3)]Man
# Procedure, shortened: as §1
# [28] = molecular target: Man(a1-2)Man(a1-3)[Man(a1-2)Man(a1-6)]Man(a1-6)[Man(a1-2)Man(a1-2)Man(a1-3)]Man(b1-4)GlcNAc(b1-4)GlcNAc
# Procedure, shortened: as §1
binder,measurement,setting,value
B1,glycan array binding signal (z-score),[1],-0.337
same,glycan array binding signal (z-score),[2],-0.392
same,glycan array binding signal (z-score),[3],-0.206
same,glycan array binding signal (z-score),[4],-0.369
same,glycan array binding signal (z-score),[5],-0.307
same,glycan array binding signal (z-score),[6],-0.348
same,glycan array binding signal (z-score),[7],-0.32
same,glycan array binding signal (z-score),[8],-0.375
same,glycan array binding signal (z-score),[9],-0.392
same,glycan array binding signal (z-score),GlcNAc(b1-3)GalNAc,-0.357
same,glycan array binding signal (z-score),GlcNAc(b1-3)Man,-0.385
same,glycan array binding signal (z-score),[10],-0.292
same,glycan array binding signal (z-score),[11],-0.306
same,glycan array binding signal (z-score),[12],-0.298
same,glycan array binding signal (z-score),[13],1.02
same,glycan array binding signal (z-score),[14],-0.157
same,glycan array binding signal (z-score),GlcNAc(b1-4)GlcNAc,-0.359
same,glycan array binding signal (z-score),[15],-0.366
same,glycan array binding signal (z-score),[16],-0.032
same,glycan array binding signal (z-score),[17],-0.325
same,glycan array binding signal (z-score),[18],-0.317
same,glycan array binding signal (z-score),[19],0.708
same,glycan array binding signal (z-score),GlcNAc(b1-6)GalNAc,-0.382
same,glycan array binding signal (z-score),[20],0.486
same,glycan array binding signal (z-score),Kdn(a2-3)Gal(b1-3)GalNAc,-0.342
same,glycan array binding signal (z-score),Kdn(a2-3)Gal(b1-3)GlcNAc,-0.163
same,glycan array binding signal (z-score),Kdn(a2-3)Gal(b1-4)Glc,-0.281
same,glycan array binding signal (z-score),Kdn(a2-3)Gal(b1-4)GlcNAc,-0.311
same,glycan array binding signal (z-score),[21],-0.182
same,glycan array binding signal (z-score),Kdn(a2-6)Gal(b1-4)GlcNAc,-0.005
same,glycan array binding signal (z-score),[22],-0.095
same,glycan array binding signal (z-score),[23],0.014
same,glycan array binding signal (z-score),[24],0.647
same,glycan array binding signal (z-score),[25],-0.268
same,glycan array binding signal (z-score),Man(a1-2)Man(a1-3)Man,-0.348
same,glycan array binding signal (z-score),[26],-0.36
same,glycan array binding signal (z-score),[27],-0.304
same,glycan array binding signal (z-score),[28],-0.277
